# Measured values reported in the supplement of paper PMC8728848.
# This is one part of the list.
# B1: Epa1-NP (Candida glabrata), Q6VBJ0 (protein)
# chain: MILNPALFLNKCVCIYTTLILLLLTNGGYATSSNDISLASKDPTTFPLGCSPDITTPKKGLSMELYSYDFRKKGSYPCWDAAYLDPNYPRTGYKSHRLLAKVDGVTGNINFYYHATKGCTPQLGHLPASYNYPKPLTMTNFTMLLYGYFRPKVTGFHTFTISADDLLFVNFGAGNAFDCCRRDSSADHFGNYQAYAIWGSKTAKDELTVHLDAGVYYPIRLFYNNREYDGALSFTFKTESNENTVSDFSEYFFSLDDTEEGCPGLISYDSSCASVKTSKIIGIDYHTETPNENLVPITKTIYHLGIPCTGTTTTPLCGSGFYDPLANKCVTINTSSTSSVTKTTSHTTSKEVSFHSSISSQKTLIPKSIPSPYGPIKSQSIPTEMETSSEISSSEYAFSDVISTPSHSPYTKKHSSLNSSSYTSTVIHSLTSYSISQGIFSTSLSEQNITSKSSTDKFSTATSMSNNITQSSIIISQFSTNNENYTTTSMHTSSDKISTETLNNSISTTTSILFSNSSTILKNNTTIISSDKDTHYHPVNPTIVCSTNKTEIICASITQPSISNSNNHWSSSVLKFNSTTVRSTLPSSAGSNETSINVPFSSSTESNTSTSSTSTSNSKMVRSTLPSSAGSNETSISVPFSSSTESNTSTSSTSTSNSKMVRSTLPSSAGSNETSINVPFSSSTESNTSTSSTSTSNSKTVRSTPFSSAGIIMTSLSQRNNKSASSYASSNSKCYNTADSCRKVHSTPSYLLTSSYTSEGVDYDCSLVSTKLKINDTNCVNNKHTTKSCLKTSVTTTIPTLEIKTARKSSSNTIGLHSYPTSSPNKSISSAPIIGYISSFKTIKTASPSYQTSDLTTITTITSLNNPGSTAVENTHESNDKSRKTSSNDISSKHSVIKETKDAVESSNKSHQTNTLKCSSIIIASSSHNSYESLGGTTLTLTLSKVYSPQNNDTLPFLEISEVNPSRTVLPESSKMMQYLTSTEERNKTARNTIATNIVSISTFHFEGEGNAIRMGYTQLLLMLIGIIVMNIGT
# How the values were obtained:
# Experiment in all cases: glycan array binding signal (z-score within array); higher = stronger binding
# Details in all cases: glycan notation: IUPAC condensed, linker removed
# Gal(b1-4)Glc = target: Gal(b1-4)Glc
# In short: (§1)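 Negative Z-scores can be read as non-binding. The Z-score is calculated within each array and then averaged across arrays of one protein sequence at different concentrations or buffers and across linkers. Arrays, 3228 in all, were curated from the Consortium for Functional Glycomics database and kept only where the protein sequence was available.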
# Gal(b1-4)Glc6S = target: Gal(b1-4)Glc6S
# In short: as §1
# Gal(b1-4)GlcNAc = target: Gal(b1-4)GlcNAc
# In short: as §1
# [1] = target: Gal(b1-4)GlcNAc(a1-6)Gal(b1-4)GlcNAc
# In short: as §1
# Gal(b1-4)GlcNAc(b1-2)Man = target: Gal(b1-4)GlcNAc(b1-2)Man
# In short: as §1
# [2] = target: Gal(b1-4)GlcNAc(b1-2)Man(a1-3)Man(b1-4)GlcNAc(b1-4)GlcNAc
# In short: as §1
# [3] = target: Gal(b1-4)GlcNAc(b1-2)Man(a1-3)[Gal(b1-4)GlcNAc(b1-2)Man(a1-6)]Man(b1-4)GlcNAc(b1-4)GlcNAc
# In short: as §1
# [4] = target: Gal(b1-4)GlcNAc(b1-2)Man(a1-3)[Gal(b1-4)GlcNAc(b1-2)Man(a1-6)]Man(b1-4)GlcNAc(b1-4)[Fuc(a1-6)]GlcNAc
# In short: as §1
# [5] = target: Gal(b1-4)GlcNAc(b1-2)Man(a1-3)[Gal(b1-4)GlcNAc(b1-2)Man(a1-6)][Gal(b1-4)GlcNAc(b1-4)]Man(b1-4)GlcNAc(b1-4)[Fuc(a1-6)]GlcNAc
# In short: as §1
# [6] = target: Gal(b1-4)GlcNAc(b1-2)Man(a1-3)[Gal(b1-4)GlcNAc(b1-2)Man(a1-6)][GlcNAc(b1-4)]Man(b1-4)GlcNAc(b1-4)[Fuc(a1-6)]GlcNAc
# In short: as §1
# [7] = target: Gal(b1-4)GlcNAc(b1-2)Man(a1-3)[Gal(b1-4)GlcNAc(b1-2)][GlcNAc(b1-4)]Man(b1-4)GlcNAc(b1-4)GlcNAc
# In short: as §1
# [8] = target: Gal(b1-4)GlcNAc(b1-2)Man(a1-3)[GlcNAc(b1-2)Man(a1-6)]Man(b1-4)GlcNAc(b1-4)GlcNAc
# In short: as §1
# [9] = target: Gal(b1-4)GlcNAc(b1-2)Man(a1-3)[GlcNAc(b1-4)][Gal(b1-4)GlcNAc(b1-2)Man(a1-6)]Man(b1-4)GlcNAc(b1-4)GlcNAc
# In short: as §1
# [10] = target: Gal(b1-4)GlcNAc(b1-2)Man(a1-3)[Man(a1-6)]Man(b1-4)GlcNAc(b1-4)GlcNAc
# In short: as §1
# [11] = target: Gal(b1-4)GlcNAc(b1-2)Man(a1-6)Man(b1-4)GlcNAc(b1-4)GlcNAc
# In short: as §1
# [12] = target: Gal(b1-4)GlcNAc(b1-2)Man(a1-6)[GlcNAc(b1-2)Man(a1-3)]Man(b1-4)GlcNAc(b1-4)GlcNAc
# In short: as §1
# [13] = target: Gal(b1-4)GlcNAc(b1-2)Man(a1-6)[Man(a1-3)]Man(b1-4)GlcNAc(b1-4)GlcNAc
# In short: as §1
# [14] = target: Gal(b1-4)GlcNAc(b1-2)[Gal(b1-4)GlcNAc(b1-4)]Man(a1-3)[Gal(b1-4)GlcNAc(b1-2)Man(a1-6)]Man(b1-4)GlcNAc(b1-4)GlcNAc
# In short: as §1
# [15] = target: Gal(b1-4)GlcNAc(b1-2)[Gal(b1-4)GlcNAc(b1-4)]Man(a1-3)[Gal(b1-4)GlcNAc(b1-2)[Gal(b1-4)GlcNAc(b1-6)]Man(a1-6)]Man(b1-4)GlcNAc(b1-4)GlcNAc
# In short: as §1
# [16] = target: Gal(b1-4)GlcNAc(b1-2)[Gal(b1-4)GlcNAc(b1-4)]Man(a1-3)[GlcNAc(b1-4)][Gal(b1-4)GlcNAc(b1-2)Man(a1-6)]Man(b1-4)GlcNAc(b1-4)GlcNAc
# In short: as §1
# [17] = target: Gal(b1-4)GlcNAc(b1-2)[Gal(b1-4)GlcNAc(b1-4)]Man(a1-3)[GlcNAc(b1-4)][Gal(b1-4)GlcNAc(b1-2)[Gal(b1-4)GlcNAc(b1-6)]Man(a1-6)]Man(b1-4)GlcNAc(b1-4)GlcNAc
# In short: as §1
# [18] = target: Gal(b1-4)GlcNAc(b1-2)[Gal(b1-4)GlcNAc(b1-6)]Man(a1-6)[Gal(b1-4)GlcNAc(b1-2)Man(a1-3)]Man(b1-4)GlcNAc(b1-4)GlcNAc
# In short: as §1
# [19] = target: Gal(b1-4)GlcNAc(b1-2)[Gal(b1-4)GlcNAc(b1-6)]Man(a1-6)[Gal(b1-4)GlcNAc(b1-2)Man(a1-3)]Man(b1-4)GlcNAc(b1-4)[Fuc(a1-6)]GlcNAc
# In short: as §1
# [20] = target: Gal(b1-4)GlcNAc(b1-2)[Gal(b1-4)GlcNAc(b1-6)]Man(a1-6)[GlcNAc(b1-4)][Gal(b1-4)GlcNAc(b1-2)Man(a1-3)]Man(b1-4)GlcNAc(b1-4)GlcNAc
# In short: as §1
# [21] = target: Gal(b1-4)GlcNAc(b1-2)[Gal(b1-4)GlcNAc(b1-6)]Man(a1-6)[GlcNAc(b1-4)][Gal(b1-4)GlcNAc(b1-2)[Gal(b1-4)GlcNAc(b1-4)]Man(a1-3)]Man(b1-4)GlcNAc(b1-4)[Fuc(a1-6)]GlcNAc
# In short: as §1
# [22] = target: Gal(b1-4)GlcNAc(b1-3)Gal(b1-3)GalNAc
# In short: as §1
# [23] = target: Gal(b1-4)GlcNAc(b1-3)Gal(b1-3)GlcNAc
# In short: as §1
# [24] = target: Gal(b1-4)GlcNAc(b1-3)Gal(b1-4)Glc
# In short: as §1
# [25] = target: Gal(b1-4)GlcNAc(b1-3)Gal(b1-4)GlcNAc
# In short: as §1
# [26] = target: Gal(b1-4)GlcNAc(b1-3)Gal(b1-4)GlcNAc(b1-2)Man(a1-3)[Gal(b1-4)GlcNAc(b1-3)Gal(b1-4)GlcNAc(b1-2)Man(a1-6)]Man(b1-4)GlcNAc(b1-4)GlcNAc
# In short: as §1
binder,measurement,setting,value
B1,glycan array binding signal (z-score),Gal(b1-4)Glc,0.332
same,glycan array binding signal (z-score),Gal(b1-4)Glc6S,0.524
same,glycan array binding signal (z-score),Gal(b1-4)GlcNAc,0.766
same,glycan array binding signal (z-score),[1],1.9
same,glycan array binding signal (z-score),Gal(b1-4)GlcNAc(b1-2)Man,-0.27
same,glycan array binding signal (z-score),[2],0.062
same,glycan array binding signal (z-score),[3],1.2
same,glycan array binding signal (z-score),[4],0.002
same,glycan array binding signal (z-score),[5],-0.188
same,glycan array binding signal (z-score),[6],0.111
same,glycan array binding signal (z-score),[7],-0.209
same,glycan array binding signal (z-score),[8],-0.055
same,glycan array binding signal (z-score),[9],-0.191
same,glycan array binding signal (z-score),[10],-0.048
same,glycan array binding signal (z-score),[11],-0.239
same,glycan array binding signal (z-score),[12],-0.242
same,glycan array binding signal (z-score),[13],-0.225
same,glycan array binding signal (z-score),[14],0.847
same,glycan array binding signal (z-score),[15],1.29
same,glycan array binding signal (z-score),[16],0.319
same,glycan array binding signal (z-score),[17],1.55
same,glycan array binding signal (z-score),[18],0.754
same,glycan array binding signal (z-score),[19],1.37
same,glycan array binding signal (z-score),[20],0.156
same,glycan array binding signal (z-score),[21],1.62
same,glycan array binding signal (z-score),[22],-0.137
same,glycan array binding signal (z-score),[23],0.011
same,glycan array binding signal (z-score),[24],0.571
same,glycan array binding signal (z-score),[25],0.898
same,glycan array binding signal (z-score),[26],0.589
